Data reported in publication PMC4336329 (PLoS ONE, 2015).
Screen size: about 310,000 compounds; about 14,000 (4.5%) showed an effect of 50% or more. The effect is printed as a negative number. Some of the results follow.

biological target: human ether-à-go-go-related gene (hERG) potassium channel (human, UniProt Q12809); experiment: primary screen, population patch clamp on CHO cells stably expressing hERG
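Further: peak tail current of the secondary pulse compared with the same well before compound.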

Chain of human ether-à-go-go-related gene (hERG) potassium channel (Q12809 whole entry, looked up): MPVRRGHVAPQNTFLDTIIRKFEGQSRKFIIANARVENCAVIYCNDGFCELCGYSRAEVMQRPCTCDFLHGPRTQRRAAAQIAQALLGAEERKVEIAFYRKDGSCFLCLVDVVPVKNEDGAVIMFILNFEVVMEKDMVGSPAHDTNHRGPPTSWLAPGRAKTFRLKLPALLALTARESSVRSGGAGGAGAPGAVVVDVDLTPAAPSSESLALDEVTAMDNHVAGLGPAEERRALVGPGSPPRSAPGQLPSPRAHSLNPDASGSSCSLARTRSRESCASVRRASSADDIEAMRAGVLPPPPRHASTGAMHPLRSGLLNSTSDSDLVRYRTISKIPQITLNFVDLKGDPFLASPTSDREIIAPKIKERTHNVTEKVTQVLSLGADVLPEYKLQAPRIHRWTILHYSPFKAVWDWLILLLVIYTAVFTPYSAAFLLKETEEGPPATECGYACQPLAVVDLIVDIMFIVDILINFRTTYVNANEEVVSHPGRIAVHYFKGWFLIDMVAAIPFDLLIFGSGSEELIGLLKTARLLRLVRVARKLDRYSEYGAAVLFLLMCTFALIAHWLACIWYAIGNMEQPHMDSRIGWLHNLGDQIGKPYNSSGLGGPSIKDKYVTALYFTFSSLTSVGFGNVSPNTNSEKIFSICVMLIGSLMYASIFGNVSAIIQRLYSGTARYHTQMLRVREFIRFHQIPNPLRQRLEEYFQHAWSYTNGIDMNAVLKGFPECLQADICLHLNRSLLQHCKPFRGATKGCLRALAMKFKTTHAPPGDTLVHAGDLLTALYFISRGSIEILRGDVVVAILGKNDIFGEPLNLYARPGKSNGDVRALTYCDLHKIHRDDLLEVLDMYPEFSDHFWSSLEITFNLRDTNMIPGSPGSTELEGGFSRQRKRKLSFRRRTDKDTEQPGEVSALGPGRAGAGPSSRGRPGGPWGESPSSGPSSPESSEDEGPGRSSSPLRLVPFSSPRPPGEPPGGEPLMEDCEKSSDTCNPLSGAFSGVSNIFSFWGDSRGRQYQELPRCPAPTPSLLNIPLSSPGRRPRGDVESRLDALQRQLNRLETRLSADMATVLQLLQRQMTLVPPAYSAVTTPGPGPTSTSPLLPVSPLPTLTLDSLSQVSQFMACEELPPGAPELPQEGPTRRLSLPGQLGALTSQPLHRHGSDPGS

Row | Structure (SMILES) | hERG current change (%, negative = inhibition) at 10uM
1 | CC(CNC(=O)c1ccc(Br)o1)NC(=O)c1ccc(Br)o1 (centres unmarked) | -0.676%
2 | CCOC(=O)N1CCN(CC(=O)Nc2cc(OCC)ccc2OCC)CC1.Cl | -68.1%
3 | COc1ccccc1CN(C)C(=O)CN1CCN(C(=O)c2cccs2)CC1 | -5.91%
4 | N#Cc1sc2nccc(Nc3ccccc3)c2c1N | 3.43%
5 | Cc1cc(C)cc(NS(=O)(=O)c2coc(C(N)=O)c2)c1 | -7.02%
6 | O=C(c1cn(-c2ccccc2)nc1-c1cccc([N+](=O)[O-])c1)N1CCCCC1 | -5.02%
7 | COC(=O)c1ccc(N=C(c2ccccc2)c2c(O)n(C)c(=O)n(C)c2=O)cc1 | 6.79%
8 | Cc1cccc(NC(=O)N(Cc2cc3cc(C)cc(C)c3[nH]c2=O)CC2COCCO2)c1 (centres unmarked) | -6.58%
9 | CCN(c1ccccc1)S(=O)(=O)c1ccc(OC)c(NC(=O)Cc2ccc(OC)c(OC)c2)c1 | -1.02%
10 | CCOc1ccc(/C=C/C(O)=C2/C(=O)N(C)C3(C)CC2c2ccccc2O3)cc1OC (centres unmarked) | 0.355%
11 | CC(C)Cn1c(N)c(C(=O)CSc2nnnn2C)c(=O)n(C)c1=O | 4.91%
12 | Cc1ccc(NC(=O)CCNC(=O)Cn2cnc3ccccc3c2=O)cc1F | 16.2%
13 | CC(C)(C)NC(=O)Nc1ccc(F)c(Cl)c1 | -0.708%
14 | COCCSc1nnc(NC(=O)C2CC(=O)N(CCc3ccc(F)cc3)C2)s1 (centres unmarked) | 3.33%
15 | Cc1nn(-c2ccccc2)c(Cl)c1C(=O)N1CCN(c2ncnc3c2cnn3-c2ccccc2)CC1 | -29.1%
16 | COc1cc2[nH]c(=S)n(N(C(C)=O)C(C)=O)c(=O)c2cc1OC | 10%
17 | CC(NC(=O)c1ccccc1NC(=O)c1ccncc1)c1ccccc1 (centres unmarked) | 4.33%
18 | COc1cc2c(cc1OC)CN(c1ccc([N+](=O)[O-])cc1Cl)CC2 | -41%
19 | O=C(CCN1C(=O)C2C3C=CC(C3)C2C1=O)NCCc1ccccc1Cl (centres unmarked) | -8.46%
20 | Cc1ccc(CNS(=O)(=O)c2ccc3c(c2)NC(=O)CS3)cc1 | 8.97%
21 | Cc1n[nH]c(=O)c2c(NC(=O)CSc3nnc(-c4ccncc4)n3C)oc(C)c12 | 12.8%
22 | CSc1cc(-c2ccncc2)nc(-c2ccc(Cl)cc2)c1 | 9.7%
23 | OC[C@H]1O[C@@H](O[C@@H]2[C@@H](CO)O[C@@](O)(CO)[C@H]2O)[C@H](O)[C@@H](O)[C@H]1O | 15%
